# Data from publication PMC4336329 (PLoS ONE, 2015).
# In all, about 310,000 compounds went through this assay and about 2,200 (0.71%) showed an effect of 50% or more. Effects have a minus sign here. This is one part of the list.
# Target: human ether-à-go-go-related gene (hERG) potassium channel (human, UniProt Q12809)
# Assay: primary screen, population patch clamp on CHO cells stably expressing hERG
# Chain of human ether-à-go-go-related gene (hERG) potassium channel (Q12809 whole entry, looked up): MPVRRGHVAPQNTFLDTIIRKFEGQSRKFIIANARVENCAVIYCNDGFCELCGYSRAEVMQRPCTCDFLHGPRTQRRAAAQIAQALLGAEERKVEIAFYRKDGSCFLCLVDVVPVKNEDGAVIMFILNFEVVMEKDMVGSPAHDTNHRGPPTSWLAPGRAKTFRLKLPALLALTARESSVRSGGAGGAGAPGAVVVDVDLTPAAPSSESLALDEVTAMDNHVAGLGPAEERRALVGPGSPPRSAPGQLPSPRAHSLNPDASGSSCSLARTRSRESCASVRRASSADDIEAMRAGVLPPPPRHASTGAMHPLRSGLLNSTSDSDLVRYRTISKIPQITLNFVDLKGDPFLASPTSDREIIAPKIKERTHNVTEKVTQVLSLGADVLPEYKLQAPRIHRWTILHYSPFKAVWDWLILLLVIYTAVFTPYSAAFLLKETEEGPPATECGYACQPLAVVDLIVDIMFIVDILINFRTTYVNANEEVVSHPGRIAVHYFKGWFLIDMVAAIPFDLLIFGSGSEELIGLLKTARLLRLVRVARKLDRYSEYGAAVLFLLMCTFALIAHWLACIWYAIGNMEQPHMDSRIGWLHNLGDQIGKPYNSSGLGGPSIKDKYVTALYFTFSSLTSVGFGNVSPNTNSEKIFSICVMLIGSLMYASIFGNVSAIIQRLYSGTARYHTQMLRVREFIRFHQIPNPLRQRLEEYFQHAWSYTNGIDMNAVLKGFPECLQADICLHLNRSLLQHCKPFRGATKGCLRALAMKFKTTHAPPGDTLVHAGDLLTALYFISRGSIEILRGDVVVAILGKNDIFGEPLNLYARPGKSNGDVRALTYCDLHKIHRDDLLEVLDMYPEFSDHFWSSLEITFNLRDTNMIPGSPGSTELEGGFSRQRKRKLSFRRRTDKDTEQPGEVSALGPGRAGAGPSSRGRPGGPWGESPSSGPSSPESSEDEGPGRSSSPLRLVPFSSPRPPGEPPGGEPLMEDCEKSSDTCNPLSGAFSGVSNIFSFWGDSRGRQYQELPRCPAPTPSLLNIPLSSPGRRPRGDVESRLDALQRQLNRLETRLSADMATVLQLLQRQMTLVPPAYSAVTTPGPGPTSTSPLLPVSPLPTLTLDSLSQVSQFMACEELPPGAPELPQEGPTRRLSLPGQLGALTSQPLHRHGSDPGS
row,SMILES,"hERG current change (%, negative = inhibition) at 1uM [%]"
1,O=C(CCN1C(=O)S/C(=C/c2ccc(Cl)cc2)C1=O)N1CCOCC1,7.97
2,Cc1cc(C(=O)Nc2ccc(F)cc2F)on1,15.7
3,Cc1ccc(C(=O)Cn2cc([N+](=O)[O-])nc2C)cc1,7.68
4,CN=c1scc(C)n1/N=C/c1ccc(O)c(O)c1O,15
5,Cc1ccc(OCCC(=O)N(Cc2ccccc2)c2c(N)n(Cc3ccccc3)c(=O)[nH]c2=O)cc1,12.7
6,CCN(CC)c1ccc(NC(=O)C2CCC(CNc3c(N4CCCC4)c(=O)c3=O)CC2)c(C)c1 (centres unmarked),13.6
7,CN(C)/C=C(\C#N)c1nc2ccccc2[nH]1,8.26
8,COc1ccc(CCNS(=O)(=O)c2cccs2)cc1,12.6
9,Cc1ccc(C2C(C(=O)c3cc4ccccc4o3)=C(O)C(=O)N2CCN2CCOCC2)o1 (centres unmarked),8.24
10,Cc1cc(-c2nnc(SCC(=O)c3ccc(F)cc3)o2)no1,11.4
11,CN(C)c1cccc(C(=O)OCC(=O)Nc2ccccc2Cl)c1,13.7
12,OC(CNCC1CCCCC1)COc1ccccc1 (centres unmarked),6.17
13,CCOc1ccc(-c2cc(C(=O)N/N=C/c3ccc(O)cc3)c3ccccc3n2)cc1,4.98
14,CCn1c2ccccc2c2nnc(SCC(=O)Nc3ncccn3)nc21,1.79
15,Cc1nn(Cc2ccccc2Cl)c(Cl)c1C(=O)OC(C(=O)NC(N)=O)C(C)C (centres unmarked),6.86
16,Cc1ccc(N2CCN(c3ccc(C)cc3)C2c2cccnc2)cc1,10.9
17,CCOC(=O)c1c(C)n(-c2ccccc2)c2ccc(OCCN(C)C)cc12,7.59
18,NC(=O)C1CCN(CC(=O)Nc2nccs2)CC1,12.8
19,Cc1nc(Cc2ccc(OC(C)C)cc2)[nH]c(=O)c1CC(=O)O,9.85
20,O=C(Nc1cccnc1)c1cccc(S(=O)(=O)N2CCCCC2)c1,12.1

row,SMILES,"hERG current change (%, negative = inhibition) at 1uM [%]"
1,CC(C)Cn1c(=O)c2c(nc3n2CCCN3Cc2ccccc2)n(C)c1=O,6.6
2,Brc1ccc(C2CC(c3ccccc3)=Nc3ccccc3N2)cc1 (centres unmarked),10.3
3,[O-]/[N+](=C\c1ccncc1)c1ccccc1,3.59
4,Oc1c(Cl)c(Cl)c(Cl)c(Cl)c1Cl,20.7
5,CC(C)CNC(=O)c1c(F)c(F)c(F)c(F)c1F,8.56
6,Cn1cnnc1SCc1ccc(C(=O)N/N=C(\CCC(=O)O)c2ccc(C(C)(C)C)cc2)cc1,2.77
7,O=C1CCc2cc(S(=O)(=O)N3CCC(C(=O)Nc4nccs4)CC3)ccc2N1,6.4
8,CCN(C(C)=O)N(CC)c1nc(Cl)nc(NC(C)C)n1,4.24
9,O=C(Nc1ccccc1)OCCOc1ccccc1Br,20.3
10,Cc1nn(-c2ccccc2)nc1C(=O)NN,9.14
11,c1cc2ccc3ccc(CN4CCOCC4)c4ccc(c1)c2c34,3.58
12,COc1cccc(C2CC(c3ccccc3)Nc3nc(N)nn32)c1 (centres unmarked),2.21
13,Cc1ccc(NC(=S)N2CCN(c3ccccn3)CC2)cc1C,12.7
14,COc1ccc(NC(=O)C2CC(=O)NC3=C2C(=O)CC(C)(C)C3)cc1 (centres unmarked),-1.62
15,CCNC(=O)C(=O)N1CCC2(CC1)OCCN2S(=O)(=O)c1ccc(C)cc1,10.8
16,Cc1cc(C)c2c(c1)/C(=N/Nc1ccc(S(N)(=O)=O)cc1[N+](=O)[O-])CCC2,8.52
17,COc1cccc(/C=C2\Oc3cc(OCC(=O)N4CCCCC4)ccc3C2=O)c1OC,12.8
18,CC(=O)Nc1sc(C)c(C)c1C(=O)OCCOc1ccccc1,12.4
19,O=C(Nc1cccc(Cl)c1)Nc1ccon1,6.02
20,c1cn(CCCNC2=NCCCCC2)cn1,13.5

row,SMILES,"hERG current change (%, negative = inhibition) at 1uM [%]"
1,COc1ccc(/C=N/Nc2cc(N3CCOCC3)ncn2)c(OC)c1,7.91
2,O=C(Cc1csc(NC(=O)Nc2ccc(Cl)cc2)n1)NC1CCCC1,10.9
3,c1nc(NC2CCCCCC2)c2[nH]cnc2n1,29.3
4,COc1cccc(OCC(=O)N2CCN(C)CC2)c1,3.18
5,Cc1cc(C(=O)N2CCC(C)CC2)on1,8.43
6,c1ccc(CCn2nnc3ccccc32)cc1,2.45
7,CCOc1ccc(C(=O)COC(=O)CNC(=O)C2CCCCC2)cc1,7.16
8,COc1cc(C(=O)NNC(=O)c2cc(-c3ccccc3)n[nH]2)cc(OC)c1C,11.6
9,COc1ccc(N2C(=O)CC(SC(C)C)C2=O)cc1 (centres unmarked),5.07
10,Cc1ccc2c(c1)N(C(=O)CCC(=O)NCCCN1CCN(C)CC1)CC(C)O2 (centres unmarked),8.82
11,CCCNc1c(N)n(-c2ccccc2)c(=O)[nH]c1=O,10.2
12,O=C(NCc1ccccc1)c1ccc(C(=O)N(C2CCCCC2)C2CCCCC2)cc1,-4.29
13,CCn1c(=O)c(C(=O)CN2CC(C)OC(C)C2)c(N)n(Cc2ccccc2)c1=O (centres unmarked),-13.1
14,CC(C)N(C(=S)Nc1cccc(S(=O)(=O)N(C)C)c1)c1ccccc1,10.1
15,NNC(=O)COc1ccc(-c2nccc(-c3ccc(F)cc3)n2)cc1,11.2
16,C/C=C\C=C\C(=O)N1CC2(CC(c3cccc(NC(=O)COc4ccc(Cl)cc4)c3)=NO2)C[C@H]1C(N)=O (some centres unmarked),-23.9
17,CCOC(=O)c1nc(Nc2cc(Cl)ccc2OC)c2ccccc2n1,9.12
18,COCCN(C(=O)COC(=O)/C=C/c1ccco1)c1c(N)n(Cc2ccccc2)c(=O)[nH]c1=O,11.5
19,CCc1cc(C(=O)N(Cc2ccccc2)c2c(N)n(CCOC)c(=O)[nH]c2=O)sc1C,3.53
